Laboratory results from PubChem BioAssay AID624417 (National Center for Advancing Translational Sciences (NCATS), 2012).
Hit rate of the full screen: of about 410,000 compounds, about 6,400 (1.6%) were called active. Inconclusive results, whose numbers are uncertain, are shown with a selection of clear calls. The call rests on the fitted dose curve; in most records, active means well fitted inhibition curve with a large enough effect; inconclusive means small, poorly fitted or top-dose-only effect; inactive means no such curve, though single readings can be large or run the other way. Potencies of inconclusive entries are left out as doubtful fits.

Target: Glucagon-like peptide 1 receptor (Homo sapiens) (UniProt P43220)
Test: qHTS of GLP-1 Receptor Inverse Agonists (Inhibition Mode); further: nearly all actives have a fitted effect of over 55% in size
Conditions: HEK293 GLP-1R CRE-luciferase, luminescence, 24 h, GLP-1R form is constitutively active; activity change, negative = inhibition: at 38.3 µM (top of the series) unless noted
Summary of the method: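 GLP-1R inverse agonism mode: basal reporter luminescence in engineered HEK293 cells measured after one day of compound exposure at 37 deg C, with a 12 min room-temperature detection step.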
On the % scale 0 is the no-effect control and ±100 the full control effect; potency means the concentration at half of the fitted maximal effect; tags describe the fitted curve by direction and shape.

UniProt P43220, sequence (P43220 whole entry, looked up): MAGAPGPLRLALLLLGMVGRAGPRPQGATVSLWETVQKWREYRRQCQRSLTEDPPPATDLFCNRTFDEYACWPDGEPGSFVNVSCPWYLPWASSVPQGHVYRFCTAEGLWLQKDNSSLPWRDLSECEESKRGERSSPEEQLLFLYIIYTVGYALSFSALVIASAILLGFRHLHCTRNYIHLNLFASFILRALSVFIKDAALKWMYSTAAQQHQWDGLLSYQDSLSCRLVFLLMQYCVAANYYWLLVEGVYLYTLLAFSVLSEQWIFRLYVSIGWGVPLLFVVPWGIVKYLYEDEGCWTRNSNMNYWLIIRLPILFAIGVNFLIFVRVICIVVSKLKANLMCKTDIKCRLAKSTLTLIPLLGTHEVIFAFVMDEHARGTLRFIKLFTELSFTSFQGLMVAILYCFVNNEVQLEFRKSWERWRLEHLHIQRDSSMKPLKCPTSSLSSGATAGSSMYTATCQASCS

| Compound | Potency | activity change, negative = inhibition |
| --- | --- | --- |
| CCOc1ccc(NS(=O)(=O)c2ccc(C(=O)NCC(c3ccco3)N(C)C)cc2)cc1 (stereo unspecified) | inconclusive [inhibitor, single point] | – |
| O=C(/C=C/c1ccco1)Nc1ccc2nn(-c3ccccc3)nc2c1 | inconclusive [inhibitor, single point] | – |
| CCc1ccccc1NNC(=O)CCc1ccccc1 | inconclusive [inhibitor, partial curve, poor fit] | – |
| Cc1ccc2nc(-c3ccccn3)c(Nc3ccc(F)cc3)n2c1 | inconclusive [inhibitor, single point] | – |
| COc1cc(/C=N/Nc2ccc(Cl)cc2)ccc1OC(=O)c1cccs1 | inconclusive [inhibitor, partial curve, poor fit] | – |
| CC[C@]12c3[nH]c4cc(-c5ccco5)ccc4c3CCN1C(=O)[C@@H](CC(=O)NCCCOC)C[C@@H]2C(=O)N1CCN(C(=O)c2ccco2)CC1 | – | inactive: 9.66% |
| CCC(Oc1ccccc1)C(=O)Nc1ccccc1OCc1cc(=O)n2ccccc2n1 (stereo unspecified) | – | inactive: 3.56% |
| CN1CCN(C(=O)c2cc3nc(-c4ccccc4)cc(-c4ccccc4)n3n2)CC1 | inconclusive [inhibitor, partial curve, poor fit] | – |
| O=C(N/N=C/c1cccc(O)c1)c1ccc(NC(=O)C2CCCCC2)cc1 | inconclusive [inhibitor, partial curve, poor fit] | – |
| O[C@@H]1C[C@H](c2ccc(Cl)cc2)N(CC2CCCCC2)C[C@H]1n1cc(C2CC2)nn1 | – | inactive: -4.08% |
| Cc1cc(C)cc(NC(=O)CCCN2C(=O)C(c3ccccc3)Oc3cccnc32)c1 (stereo unspecified) | inconclusive [inhibitor, partial curve, poor fit] | – |
| COc1ccccc1S(=O)(=O)Cc1ccc(C(=O)N2CCN(c3ccc(C)cc3)C(C)C2)o1 (stereo unspecified) | inconclusive [inhibitor, single point] | – |
| COc1ccc(/C=C/c2nc(C#N)c(N3CCN(c4ccccc4)CC3)o2)cc1OC | – | inactive: -6.17% |
| CC(Oc1ccc(C(C)(C)C)cc1)C(=O)NC1CC(C)(C)NC(C)(C)C1 (stereo unspecified) | inconclusive [inhibitor, partial curve] | – |
| O=C(Cc1ccc(F)cc1)N1CCC(c2nc3c(nnn3Cc3ccc(Cl)cc3)c(=O)[nH]2)CC1 | inconclusive [inhibitor, single point] | – |
| Cc1cc(C)c(OCCN2CCOCC2)c(Cl)c1 | – | inactive: 6.38% |
| FC(F)(F)c1ccccc1Cc1c(-c2ccc(Cl)cc2)nc2ccc(Br)cn12 | – | inactive: -22.7% |
| COC(=O)C1=C(C)NC(C)=C(C(=O)OC)C1c1ccc(OC(=O)c2oc3ccccc3c2C)c(OC)c1 | inconclusive [inhibitor, single point] | – |
| COc1ccc(N2CCN(C(c3cc4cc(C)ccc4[nH]c3=O)c3nnnn3Cc3ccccc3)CC2)cc1 (stereo unspecified) | inconclusive [inhibitor, single point] | – |
| COc1ccc(C)cc1NC(=O)C(=O)NCCc1csc(-c2ccc(C)cc2)n1 | – | inactive: 10.8% |
| C#CCNC(=O)C1=C[C@H](c2ccc(C(F)(F)F)cc2)C[C@H](OCc2ccc(CO)cc2)O1 | inconclusive [inhibitor, single point] | – |

| Compound | Potency | activity change, negative = inhibition |
| --- | --- | --- |
| Cc1cccc(OCCNC(=O)c2ccc(Oc3ccc(C(F)(F)F)cc3[N+](=O)[O-])cc2)c1 | inconclusive [inhibitor, single point] | – |
| Cc1cccn2cc(-c3ccc(NC(=O)Cc4ccccc4)cc3)nc12 | – | inactive: 0.207% |
| CC1=CC(C)(C)n2c(O)c(N=N)c3cc(C)cc1c32 | inconclusive [inhibitor, partial curve] | – |
| N#Cc1c(N)nc2c3c(sc(=N)c2c1N)NC(=O)CC3c1ccccc1 (stereo unspecified) | – | inactive: 40.7% |
| COc1nc(-c2cccs2)cc(-c2ccc(C)cc2)c1C#N | – | inactive: -8.34% |
| O=c1c2ccccc2n(Cc2ccc(F)cc2)c(=O)n1C1CCCC1 | inconclusive [inhibitor, single point] | – |
| COC(=O)c1cc(NC(=O)c2cc(-c3ccc(Cl)cc3)oc2C(F)(F)F)ccc1N1CCOCC1 | inconclusive [inhibitor, partial curve, poor fit] | – |
| COc1cccc(-c2nn(C)c3sc(C(=O)NCc4ccc5c(c4)OCO5)cc23)c1 | – | inactive: 10.6% |
| O=C(c1cc(COc2cccc(C(F)(F)F)c2)on1)N1CCC(c2ccncc2)CC1 | inconclusive [inhibitor, partial curve, poor fit] | – |
| Cn1sc2ccccc2c1=O | – | inactive: 12% |
| CC(=O)NC(c1ccc(N(C)C)cc1)c1cc(Cl)c2cccnc2c1O (stereo unspecified) | inconclusive [inhibitor, full curve, poor fit] | – |
| Cc1cc2nc3ccc(=[N+](C)C)cc-3sc2cc1N | inconclusive [inhibitor, partial curve, poor fit] | – |
| CCCCCCc1ccc(N2C[C@H](CCCCC)[C@@H](CC(=O)NCc3ccc(OC)cc3)C2=O)cc1 | inconclusive [inhibitor, partial curve, poor fit] | – |
| CCOc1ccc(C(=O)OCC(=O)NCC2CCCO2)cc1 (stereo unspecified) | – | inactive: 9.09% |
| CCc1cc(-c2nnn(CCC3COCCO3)c2CC)cc(CC)c1-c1cn(CCc2c[nH]c3ccccc23)nn1 (stereo unspecified) | inconclusive [inhibitor, single point] | – |
| Cc1cccc(NC(=O)C(=O)NCC(c2cccnc2)N2CCOCC2)c1 (stereo unspecified) | – | inactive: 12.3% |
| O=C1CN(C(=O)c2c(F)cccc2F)C(c2ccc(F)cc2)c2cc(Br)ccc2N1 (stereo unspecified) | inconclusive [inhibitor, single point] | – |
| CCN(CC)CCNC(=O)c1ccc(NC(=O)c2c(C)nn(-c3ccc(F)cc3)c2Cl)cc1 | inconclusive [inhibitor, single point] | – |
| Cc1nc(Nc2ccccc2)sc1C(=O)c1ccccc1 | inconclusive [inhibitor, single point] | – |
| CN(C)C(C(=O)NC1CCCCC1)c1ccc(Cl)cc1 (stereo unspecified) | inconclusive [inhibitor, partial curve, poor fit] | – |
